Laboratory results as given in PubChem BioAssay (NCATS).
Inconclusive results, whose numbers are uncertain, are shown with a selection of clear calls. For some of these results: Potencies beside an inconclusive call are fits to weak or partial responses and may not hold up. Active and inactive are the calls of the source. Calls come from the whole dose curve; as a rule, active = well fitted curve in the direction sought with a large enough effect; inconclusive = small, poorly fitted or top-dose-only effect, or another doubt; inactive = no such curve, though single readings can be large; an effect the other way counts as inactive or inconclusive.

What was measured:
[1] = HPAF-II Cancer Cell Toxicity qHTS against the NCATS CANVASS Library (AID 1347346); note: nearly all actives have a fitted effect of over 55% in size; note: potency is the fitted concentration of half-maximal effect
Procedure, shortened: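 1000 HPAF-II cells/well; 4 h pre-incubation; 11-pnt compound titration; 72 h, 37 degrees C/5% CO2; CellTiter-Glo, 15 min RT; luminescence read.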

[2] = SW1088 Cancer Cell Toxicity qHTS against the NCATS CANVASS Library (AID 1347350); note: potency is the fitted concentration of half-maximal effect; nearly all actives have a fitted effect of over 75% in size
Procedure, shortened: (§1)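 Cells were seeded at 1000 per well, allowed 4 h at 37 degrees C/5% CO2, then pin-treated with an 11-point compound series. After 72 h, viability was read as CellTiter-Glo luminescence following 15min at room temperature.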

[3] = HPAF-II 12hr Apoptosis Induction qHTS against the NCATS CANVASS Library (AID 1347358)
Procedure, shortened: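 Caspase-Glo 3/7 luminescence (DEVD substrate) reports caspase activity in HPAF-II cells after 12 h compound treatment at 37 degrees C. Compounds were tested in an 11-point series. Doxorubicin served as control.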

[4] = KB-8-5-11 Cancer Cell Toxicity qHTS against the NCATS CANVASS Library (AID 1347364); settings: activity change, negative = toxicity: at 46.1 µM (top of the series); note: nearly all actives have a fitted effect of over 75% in size; note: potency is the fitted concentration of half-maximal effect
Procedure, shortened: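 CellTiter-Glo luminescence after 72 h exposure; 500 KB-8-5-11 cells/well, DMEM/10% FBS, 37C, 5% CO2; compounds in 11-pt qHTS. Follow-up confirmation included medium with 1uM tariquidar.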

[5] = molecular target: Nuclear receptor subfamily 1 group I member 3 (Homo sapiens) (UniProt Q14994); assay: qHTS for Constitutive Androstane Receptor (CAR) Agonist screened against the NCATS CANVASS Library (AID 1347373);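 note: every well also contained 1.5 µM PK11195 alongside the test compound; potency is the fitted concentration of half-maximal effect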
Procedure, shortened: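 Luciferase read-out (ONE-Glo, 30 min RT) of CYP2B6-2.2kb promoter activity in double-stable HepG2-hCAR cells after 24hr compound exposure with 1.5uM PK11195 present; viability measured first by CellTiter-Fluor.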

[6] = qHTS for Antimalaria activity screened against the NCATS CANVASS Library (AID 1347380); note: potency is the fitted concentration of half-maximal effect; nearly all actives have a fitted effect of over 40% in size
Procedure, shortened: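 SYBR Green fluorescence (ex 485, em 535 nm) read after saponin/Triton lysis and 18 h further incubation; Dd2 asexual blood-stage parasites, 72 h compound exposure, 11-pt concentration series, 2.5% hematocrit, 0.3% parasitemia.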

[7] = UWB1.289 Cancer Cell Toxicity qHTS against the NCATS CANVASS Library (AID 1347347); note: nearly all actives have a fitted effect of over 60% in size; note: potency is the fitted concentration of half-maximal effect
Procedure, shortened: as §1

[8] = Secretion counterscreen for inhibitors of the SERCaMP assay screened against the NCATS CANVASS Library (AID 1347390); settings: SH-SY5Y constitutive GLuc secretion, luminescence, 20 h; activity change, negative = inhibition: at 76.6 µM (top of the series);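 note: light from luciferase secreted into medium read as a measure of general secretion; potency is the fitted concentration of half-maximal effect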
Procedure, shortened: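 Counterscreen for secretory-pathway interference: after 4 h attachment, SH-SY5Y-GLuc cells were exposed 20 hours to compounds (final 0.001 - 77 uM), then coelenterazine added and GLuc luminescence recorded; Brefeldin A served as control.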

[9] = Vero-766 cells viability qHTS against the NCATS CANVASS Library: Counterscreen for Zika virus inhibition assay (AID 1347394); settings: Vero 766 viability, CellTiter-Glo luminescence, 72 h; activity change, negative = cytotoxic: at 46.1 µM (top of the series); note: nearly all actives have a fitted effect of over 60% in size
Procedure, shortened: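 CellTiter Glo luminescence measured cytotoxicity after 72 h at 37C in uninfected Vero 766 cells, plated at 1000 cells/well. Compounds were applied in an 11-point series. Wells without cells defined 100% inhibition.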

[10] = Panc-1005 Cancer Cell Toxicity qHTS against the NCATS CANVASS Library (AID 1347349); note: potency is the fitted concentration of half-maximal effect; nearly all actives have a fitted effect of over 60% in size
Procedure, shortened: as §1

[11] = U-118MG Cancer Cell Toxicity qHTS against the NCATS CANVASS Library (AID 1347351)
Procedure, shortened: as §1

[12] = A2780 Cisplatin Sensitive Ovarian Cancer Cell Toxicity qHTS against the NCATS CANVASS Library (AID 1347353); note: potency is the fitted concentration of half-maximal effect; nearly all actives have a fitted effect of over 60% in size
Procedure, shortened: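 750 cells/well, 4 h settle; 11-pt cpd titration; 72 h, 37 °C, 5% CO2; ATPLite 10 min RT; luminescence read.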

[13] = tested on: NAD(P)H diaphorase (Clostridium kluyveri); assay: Diaphorse counterscreen qHTS: Assay Interference Panel against the NCATS CANVASS Library (AID 1347362); note: potency is the fitted concentration of half-maximal effect
Procedure, shortened: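 Counterscreen for coupling-enzyme interference: resorufin fluorescence from resazurin/NADH turnover, read after 5 min at room temperature. Compounds were tested over an 11-point series after 15 min dark preincubation with diaphorase in PBS-Tween.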

[14] = KB-3-1 Cancer Cell Toxicity qHTS against the NCATS CANVASS Library (AID 1347366); note: potency is the fitted concentration of half-maximal effect; nearly all actives have a fitted effect of over 75% in size
Procedure, shortened: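 CellTiter-Glo luminescence measured viability after 72 h at 37C. KB-3-1 cells were seeded at 500 per well in DMEM/10% FBS.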

[15] = G06 Cancer Cell Toxicity qHTS against the NCATS CANVASS Library (AID 1347368)
Procedure, shortened: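 ATP luminescence (CellTiterGlo) readout of cytotoxicity. Canine G06 glioma cells, 500/well, 72 hr incubation at 37C with compounds; bortezomib titration served as control.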

[16] = MCF7 Cancer Cell Toxicity qHTS against the NCATS CANVASS Library (AID 1347369); settings: activity change, negative = cytotoxicity: at 46 µM (top of the series); note: potency is the fitted concentration of half-maximal effect
Procedure, shortened: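 Cytotoxicity was measured as CellTiterGlo luminescence (ATP) after 72 h at 37 °C. The cells were MCF7 at 500 per well, with an 11-point compound concentration series.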

[17] = qHTS for ATAD5 Antagonist screened against the NCATS CANVASS Library (AID 1347370); note: potency is the fitted concentration of half-maximal effect; nearly all actives have a fitted effect of over 65% in size
Procedure, shortened: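 HEK293T-ATAD5 luc reporter, 2000 cells/well; 5hr attach; cpd + 10 uM 5-FUrd; 16hr 37C, 5% CO2. Readouts: CellTiter-Fluor fluorescence (1hr), then Amplite luciferase luminescence (30min RT).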

[18] = qHTS for Hypoxia signaling pathway (HIF-1) antagonists against the NCATS CANVASS Library (AID 1347374)
Procedure, shortened: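 Beta-lactamase reporter under HRE control in ME-180 cells; CoCl2 stimulus (60 uM solution as added), compounds 11-pt qHTS, 17 h 37C. CCF4 dye 2 h RT, 460/530 nm emission. CellTiter-Glo viability in same wells.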

[19] = qHTS for Hypoxia signaling pathway (HIF-1) agonists against the NCATS CANVASS Library (AID 1347375)
Procedure, shortened: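 Read-out: beta-lactamase FRET (CCF4-AM, ex 405, em 460 and 530 nm) after 2 h at room temperature. ME-180 cells stably carrying HRE-bla were treated 17 h at 37C with compounds in an 11-point concentration series.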

[20] = DH5-alpha competent E. coli microbial cell viability qHTS against the NCATS CANVASS Library (AID 1347377); settings: viability signal change, negative = cytotoxic: at 46.1 µM (top of the series); note: potency is the fitted concentration of half-maximal effect
Procedure, shortened: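 Luminescent ATP read-out (BacTiter-Glo, 20 min RT) after overnight 37C culture of DH5-alpha E. coli with compounds; daunomycin control at 0.2 nM–9.2 uM final.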

[21] = qHTS for Inflammasome Signaling Inhibitors: IL-1-beta AlphaLISA screen against the NCATS CANVASS Library (AID 1347379);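 note: human THP-1 cells primed with LPS then triggered with ATP; secreted IL-1B measured as AlphaLISA emission at 615 nm; potency is the fitted concentration of half-maximal effect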
Procedure, shortened: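 THP-1, 1 hr compound pre-incubation, then LPS 250 ng/mL + ATP 1.25 mM (final); 16 hr total with compound; IL-1B AlphaLISA, ex 680/em 615 nm; 11-point qHTS, up to 57.5 uM final.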

[22] = qHTS for Activators of p53 Stress Response Pathway screened against the NCATS CANVASS Library (AID 1347388); note: potency is the fitted concentration of half-maximal effect
Procedure, shortened: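 Beta-lactamase reporter driven by p53 response elements in HCT-116 cells, read as the 460 nm/530 nm emission ratio after CCF4 loading, following 16 h of exposure to an 11-point series. Cell viability was measured in the same wells by CellTiter-Glo luminescence.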

[23] = qHTS for inhibitors of ER calcium dysfunction: SERCaMP assay screened against the NCATS CANVASS Library (AID 1347393); settings: SH-SY5Y GLuc-SERCaMP (Gaussia luciferase released on ER calcium loss) secretion, thapsigargin, luminescence; activity change, negative = inhibition: at 76.6 µM (top of the series) unless noted; note: potency is the fitted concentration of half-maximal effect; nearly all actives have a fitted effect of over 40% in size
Procedure, shortened: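 Thapsigargin-induced ER calcium depletion drives GLuc-SERCaMP secretion from SH-SY5Y cells; compounds given 16 h beforehand were scored by lowered coelenterazine luminescence after 4 h challenge.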

[24] = Viability qHTS for inhibitors of the SERCaMP assay screened against the NCATS CANVASS Library (AID 1347400); note: potency is the fitted concentration of half-maximal effect; nearly all actives have a fitted effect of over 70% in size
Procedure, shortened: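 CellTiter-Glo luminescence readout after 48 h compound exposure (11-pnt qHTS series) of SH-SY5Y-GLuc SERCaMP MJH297 cells seeded at 1000 cells/well; bortezomib positive control.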
Tags give direction and shape of the fitted curve.

Sequence of UniProt Q14994 (Q14994 whole entry, looked up): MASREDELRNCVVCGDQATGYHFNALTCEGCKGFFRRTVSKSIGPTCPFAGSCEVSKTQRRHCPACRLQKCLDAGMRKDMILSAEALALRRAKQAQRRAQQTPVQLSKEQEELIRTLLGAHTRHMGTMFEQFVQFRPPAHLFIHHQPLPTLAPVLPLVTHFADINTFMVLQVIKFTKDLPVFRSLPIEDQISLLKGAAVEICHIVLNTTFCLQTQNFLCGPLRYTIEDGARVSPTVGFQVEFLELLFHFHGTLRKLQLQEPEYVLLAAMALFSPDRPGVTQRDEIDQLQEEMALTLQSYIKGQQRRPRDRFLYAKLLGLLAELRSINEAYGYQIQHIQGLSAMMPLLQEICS

Question: Which Potency [1] does the source give for COC(=O)[C@@]1(C)CCC[C@]2(C)c3cc(OC)ccc3CC[C@@H]12 here?
Answer: The Potency was inconclusive: 21.1 µM [cytotoxic, partial curve].

Question: What about the Potency [2] of the same compound?
Answer: The Potency was inconclusive: 29.8 µM [cytotoxic, single point].

Question: And the Potency [3]?
Answer: Its Potency is “inactive”.

Question: And the Potency [4]?
Answer: Its Potency is “inactive”.

Question: And the Potency [5]?
Answer: The Potency was inconclusive: 9.33 µM [activator, full curve].

Question: And the Potency [6]?
Answer: The Potency was inconclusive: 0.003 µM [cytotoxic, full curve, poor fit].

Question: What does the source list for CC1(C)CC[C@]2(CO)CC[C@]3(C)C(=CCC4[C@@]5(C)CC[C@H](O)C(C)(C)C5CC[C@]43C)C2C1 (stereo partly specified)?
Answer: Potency [1]: inactive; Potency [7]: inactive; Potency [6]: inconclusive: 0.0033 µM [cytotoxic, full curve]; Potency [8]: inconclusive: 0.0077 µM [inhibitor, full curve]; Potency [9]: inactive

Question: Which Potency [1] does the source give for CN1CCc2cc3c(c4c2[C@H]1[C@@H](O)c1ccccc1-4)OCO3 here?
Answer: The Potency was active: 13.3 µM.

Question: And the Potency [7]?
Answer: The Potency was inconclusive: 16.7 µM [cytotoxic, partial curve, poor fit].

Question: What about the Potency [10] of the same compound?
Answer: The Potency was active: 16.8 µM.

Question: What about the Potency [11] of the same compound?
Answer: The Potency was “inactive”.

Question: What about the Potency [12] of the same compound?
Answer: The Potency was inconclusive: 7.43 µM [cytotoxic, full curve].

Question: And the Potency [13]?
Answer: Its Potency is inconclusive: 17.2 µM [inhibitor, partial curve].

Question: And the Potency [4]?
Answer: The Potency was inconclusive: 37.2 µM [cytotoxic, single point].

Question: And the Potency [14]?
Answer: The Potency was inconclusive: 37.2 µM [cytotoxic, single point].

Question: And the Potency [15]?
Answer: The Potency was inconclusive: 16.6 µM [cytotoxic, partial curve].

Question: What about the Potency [16] of the same compound?
Answer: The Potency was active: 26.2 µM.

Question: And the Potency [17]?
Answer: The Potency was inconclusive: 23.4 µM [inhibitor, partial curve].

Question: And the Potency [18]?
Answer: The Potency was active: 11.8 µM.

Question: What about the Potency [19] of the same compound?
Answer: Its Potency is “inactive”.

Question: What about the Potency [20] of the same compound?
Answer: The Potency was inconclusive: 26.3 µM [rising, single point].

Question: What about the Potency [21] of the same compound?
Answer: The Potency was inconclusive: 21.7 µM [inhibitor, partial curve].

Question: And the Potency [6]?
Answer: Its Potency is inconclusive: 14.9 µM [cytotoxic, partial curve, poor fit].

Question: And the Potency [22]?
Answer: The Potency was active: 26.3 µM.

Question: And the Potency [8]?
Answer: Its Potency is inconclusive: 34.3 µM [inhibitor, single point].

Question: And the Potency [23]?
Answer: Its Potency is active: 34.3 µM.

Question: What about the Potency [24] of the same compound?
Answer: The Potency was inconclusive: 48 µM [cytotoxic, partial curve].
